Measurements: PubChem BioAssay AID588855 (National Center for Advancing Translational Sciences (NCATS), 2011)
Where “and” joins values, the source holds several entries; their conditions need not be identical. Identical values can stand only once. Among all 410,000 compounds or so, about 5,000 (1.2%) were called active. The inconclusive results got no clear call from the source; some entries with a clear call stand among them for comparison. Calls follow the shape of the dose curve; as a rule, active = well fitted inhibition curve with a large enough effect; inconclusive = small, poorly fitted or top-dose-only effect; inactive = no such curve, though single readings can be large or run the other way. Potencies of inconclusive entries are doubtful fits and often do not repeat.

assay: qHTS for Inhibitors of TGF-b; details: HepG2 CAGA-GFP TGF-b/SMAD3 reporter, GFP fluorescence, 18 h, TGF-beta stimulated, 500 pg/mL final; series mostly up to 46.1 µM; also: nearly all actives have a fitted effect of over 65% in size
Method in brief: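 HEPG2 CAGA-GFP reporter cells (1000/well, DMEM with 1% FBS) received compounds, then recombinant TGF-beta at 500 pg/mL final for 18 hours at 37 degrees C. Per-cell GFP summed per well was normalised to unstimulated and stimulated DMSO controls before curve fitting.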
Potency is read from the fitted curve at half-maximal effect; tags tell the direction and shape of the fitted curve.

| SMILES | Potency |
| --- | --- |
| CSc1ccc(CNC(=O)C2(C)CCN2C(C)C)cc1 (configuration not stated) | inactive |
| COc1ccc(CC2(CO)CCN(CC3=Cc4cc(Cl)ccc4OC3)CC2)cc1 | inconclusive: 22.4 µM [inhibitor, single point] |
| COc1ccc(-c2ccc3c(c2)c(C#Cc2ccsc2)c(-c2cc(OC)cc(OC)c2)n3C)cc1 | inactive |
| C[C@H]1CN[C@H](CCO)/C1=C\c1ccccc1 | inactive |
| CS(=O)(=O)N1CCc2cc(C(=O)N3CCN(c4cccc(Cl)c4)CC3)ccc21 | inconclusive: 22.4 µM [inhibitor, single point] |
| Cc1ccc(S(=O)(=O)N2CCCOC2CNC(=O)C(=O)NC2CCCCC2)cc1 (configuration not stated) | inconclusive: 11.2 µM [inhibitor, partial curve, poor fit] |
| CCCS(=O)(=O)c1nc(S(=O)(=O)c2ccc(C)cc2)c(N2CCN(C)CC2)s1 | inactive |
| CCCc1nc2ccccc2n1C(=S)SC | inactive |
| CCCCNc1c(-c2ccc(OC)c(SC(C)CC)c2)nc2cnccn12 (configuration not stated) | inconclusive: 17.8 µM [inhibitor, single point] |
| Oc1ccc(C[C@@H]2CNCCN2CCc2cccc3ccccc23)cc1 | inconclusive: 35.5 µM [inhibitor, single point] |
| Cc1nc(Nc2ccc(O)cc2)c2c3c(sc2n1)CCCC3 | inactive |
| Cc1ccc(S(=O)(=O)n2nc(C)c(S(=O)(=O)N3CCCCCC3)c2C)cc1 | inactive |
| CCN(CC)c1ccc2nc3ccccc3[n+](CC)c2c1 | inconclusive: 11.2 µM [inhibitor, partial curve, poor fit] |
| CC[C@]12c3[nH]c4cc(-c5ccco5)ccc4c3CCN1C(=O)[C@@H](CC(=O)NC/C=C(\C)CCC=C(C)C)C[C@@H]2C(=O)N1CCN(C(=O)C2CC2)CC1 | inconclusive: 35.5 µM [inhibitor, single point] |
| CN(CC(=O)Nc1cccc(F)c1)C(=O)C1CC(=O)N(Cc2ccccc2)C1 (configuration not stated) | inactive |
| CCN(C(=O)Cn1ccc(C(F)(F)F)n1)c1c(N)n(Cc2ccccc2)c(=O)[nH]c1=O | inconclusive: 35.5 µM [inhibitor, single point] |
| CS(=O)(=O)Nc1ccccc1C(=O)OCC(=O)N1CCC(c2ccccc2)=N1 | inactive |
| CCC(Cn1nnc2ccccc2c1=O)NC(=O)Nc1cc(C)cc(C)c1 (configuration not stated) | inconclusive: 35.5 µM [inhibitor, single point] |
| Cc1cc(C)n(-c2ccc(C(=O)Nc3cccc(S(=O)(=O)N(C)C)c3)cc2)n1 | inconclusive: 17.8 µM [inhibitor, single point] |
| CCCn1nc2cc(C(=O)NCCCCc3ccccc3)ccc2c1OCC | inconclusive: 35.5 µM [inhibitor, single point] |
| CN(C)c1nc(C(=O)OCCO)nc(N(C)C)n1 | inconclusive: 6.31 µM [inhibitor, single point] |

| SMILES | Potency |
| --- | --- |
| Cc1cc2c(n1-c1ccc(C(=O)NCCc3ccc(Cl)cc3)cc1)CCCC2 | inactive |
| CC(=O)N1CCCc2cc(S(=O)(=O)N3CCCC(C(=O)N4CCN(c5cccc(Cl)c5)CC4)C3)ccc21 (configuration not stated) | inconclusive: 10 µM [inhibitor, partial curve] and inconclusive: 14.1 µM [inhibitor, partial curve] |
| Cc1nn(-c2ccccc2)c(Cl)c1/C=N/NC(=O)c1cccc(S(=O)(=O)N2CCCC2)c1 | inconclusive: 2.82 µM [inhibitor, partial curve, poor fit] |
| CCc1ccc(C(=O)c2cn(CC(=O)Nc3ccc(Cl)cc3)c3cc4c(cc3c2=O)OCO4)cc1 | inconclusive: 3.98 µM [inhibitor, full curve] |
| Cc1cc2c(cc1S(=O)(=O)NCc1ccc(F)cc1)n(C)c(=O)c(=O)n2C | inactive |
| Cn1nnnc1SCC(=O)N(C1CCCCC1)C1CCCCC1 | inactive |
| CCCC1=C(C(=O)OCC)C(c2sccc2C)n2ncnc2N1 (configuration not stated) | inconclusive: 10 µM [inhibitor, partial curve, poor fit] |
| O=[N+]([O-])c1cccnc1N1CCCCC1 | inconclusive: 35.5 µM [inhibitor, partial curve, poor fit] |
| COc1ccc(C(C)(O)c2nc(-c3cccc(NC(C)=O)c3)cs2)cc1 (configuration not stated) | inconclusive: 35.5 µM [inhibitor, single point] |
| CCOc1ccc(C(=O)NCc2cccnc2)cc1[N+](=O)[O-] | inconclusive: 1.26 µM [inhibitor, partial curve, poor fit] |
| CCN1CCN(C(c2cccs2)C(C)NS(=O)(=O)c2ccc(C)cc2)CC1 (configuration not stated) | inactive |
| COc1ccc(-c2oc3cc(OC(C)=O)cc(OC(C)=O)c3c(=O)c2OC)cc1 | inconclusive: 20 µM [inhibitor, single point] |
| O=C(NCCc1ccccc1)c1ccc2c(c1)N(Cc1ccc(Cl)cc1)C(=O)CS2 | inconclusive: 35.5 µM [inhibitor, single point] |
| CC(=NNC(=S)N1CCC1)c1ccccn1 | inconclusive: 5.01 µM [inhibitor, partial curve, poor fit] |
| Cc1nn(C)c(C)c1S(=O)(=O)N(CC(=O)NCCc1ccccc1)c1ccc(C(C)C)cc1 | inconclusive: 35.5 µM [inhibitor, single point] |
| C=CCn1c2ccccc2c(=O)c2cc(C#Cc3ccccn3)ccc21 | inconclusive: 6.31 µM [inhibitor, single point] |
| COc1ccc(-c2sc3ccc(OC)cc3c2-c2ccc(O)cc2)cc1 | inconclusive: 35.5 µM [inhibitor, partial curve, poor fit] |
| CC(C)c1ccc(/C=N/n2c(-c3ccccc3)n[nH]c2=S)cc1 | inconclusive: 35.5 µM [inhibitor, single point] |
| CC(=O)Cn1c(CN2CCCC2)nc2ccccc2c1=O | inconclusive: 11.2 µM [inhibitor, partial curve] |
| CCCCN1CNC(=S)N(c2ccccc2OCC)C1 | inconclusive: 35.5 µM [inhibitor, single point] |
| CSc1ccc(CN(C)C(=O)c2cccc(S(=O)(=O)NCc3ccccc3)c2)cc1 | inconclusive: 35.5 µM [inhibitor, single point] |
